Read-outs that look alike come from different tables or passages of the source. In the oligonucleotide strings, read from the 5' end, every base follows the letter of its sugar. An asterisk marks phosphorothioate; unmarked linkages are phosphodiester. Other units and linkages are bracketed, terminal groups are in braces. A string of capitals states the bases alone. d = 2'-deoxy (DNA)
Key:
[1] = test system: integrated pAUR101-HYG(rep)eGFP; settings: wild type
pAURHYG(Δ)eGFP = settings: for Average colony count on hygromycin plates / hygromycin-resistant colonies per aureobasidin-resistant colony: wild-type LSY678; for Fold Alteration in Correction Efficiency: 5 μg oligo
pAURHYG(x)eGFP = assay: Hygromycin gene correction in yeast LSY678 with or without trichostatin A; settings: Cells pre-treated with 50 μg/mL trichostatin A; 5 μg oligo

B1: HygE3T/74: 74-base single-stranded DNA oligonucleotide, three phosphorothioate linkages at each end, SEQ ID NO: 8 (nucleic acid)
DNA: dC*dT*dC*dGdTdGdCdTdTdTdCdAdGdCdTdTdCdGdAdTdGdTdAdGdGdAdGdGdGdCdGdTdGdGdAdTdAdCdGdTdCdCdTdGdCdGdGdGdTdAdAdAdTdAdGdCdTdGdCdGdCdCdGdAdTdGdGdTdTdTdC*dT*dA*dC
Q: Which results are given for B1?
A: Average colony count on hygromycin plates ([1]; 2.5 μg oligo): 652; Average colony count on hygromycin plates ([1]; 5.0 μg oligo): 1,060; Average colony count on hygromycin plates ([1]; 7.5 μg oligo): 2,052; Average colony count on hygromycin plates ([1]; 10.0 μg oligo): 2,012; Average colony count on hygromycin plates (pAURHYG(Δ)eGFP; 1.0 μg oligo): 1; hygromycin-resistant colonies per aureobasidin-resistant colony (pAURHYG(Δ)eGFP; 1.0 μg oligo): 0.01; Average colony count on hygromycin plates (pAURHYG(Δ)eGFP; 2.5 μg oligo): 18; hygromycin-resistant colonies per aureobasidin-resistant colony (pAURHYG(Δ)eGFP; 2.5 μg oligo): 0.11; Average colony count on hygromycin plates (pAURHYG(Δ)eGFP; 5.0 μg oligo): 70; hygromycin-resistant colonies per aureobasidin-resistant colony (pAURHYG(Δ)eGFP; 5.0 μg oligo): 0.43; Average colony count on hygromycin plates (pAURHYG(Δ)eGFP; 7.5 μg oligo): 47; hygromycin-resistant colonies per aureobasidin-resistant colony (pAURHYG(Δ)eGFP; 7.5 μg oligo): 0.29; Average colony count on hygromycin plates (pAURHYG(Δ)eGFP; 10.0 μg oligo): 11; hygromycin-resistant colonies per aureobasidin-resistant colony (pAURHYG(Δ)eGFP; 10.0 μg oligo): 0.07; Fold Alteration in Correction Efficiency (pAURHYG(Δ)eGFP; mre11 mutant): 1.10x; Fold Alteration in Correction Efficiency (pAURHYG(Δ)eGFP; msh2 mutant): 0x; Fold Alteration in Correction Efficiency (pAURHYG(Δ)eGFP; msh3 mutant): 0.02x; Fold Alteration in Correction Efficiency (pAURHYG(Δ)eGFP; msh6 mutant): 0x; Fold Alteration in Correction Efficiency (pAURHYG(Δ)eGFP; rad1 mutant): 0x; Fold Alteration in Correction Efficiency (pAURHYG(Δ)eGFP; rad10 mutant): 0.04x; Fold Alteration in Correction Efficiency (pAURHYG(Δ)eGFP; rad51/52 mutant): 0.13x; Fold Alteration in Correction Efficiency (pAURHYG(Δ)eGFP; rad51 mutant): 0.47x; Fold Alteration in Correction Efficiency (pAURHYG(Δ)eGFP; rad52 mutant): 0.05x; Fold Alteration in Correction Efficiency (pAURHYG(Δ)eGFP; wild type): 1x; Correction efficiency (pAURHYG(x)eGFP): 3.3 1/10^5; Hyg^r (pAURHYG(x)eGFP): 278

Source: US7566535B2, “Enhanced oligonucleotide-mediated nucleic acid sequence alteration” (University of Delaware, priority 2002, dated 2009)
